The source of these data is PMC10726135.

Some of the results follow. At the low end of the ranking, values are background and their order means little. Measured with an extract: partners may take part in the binding.

The target in the experiment is T1, HNF4alpha8 (COS-7 nuclear extract) (UniProt P41235-5).
T1 sequence: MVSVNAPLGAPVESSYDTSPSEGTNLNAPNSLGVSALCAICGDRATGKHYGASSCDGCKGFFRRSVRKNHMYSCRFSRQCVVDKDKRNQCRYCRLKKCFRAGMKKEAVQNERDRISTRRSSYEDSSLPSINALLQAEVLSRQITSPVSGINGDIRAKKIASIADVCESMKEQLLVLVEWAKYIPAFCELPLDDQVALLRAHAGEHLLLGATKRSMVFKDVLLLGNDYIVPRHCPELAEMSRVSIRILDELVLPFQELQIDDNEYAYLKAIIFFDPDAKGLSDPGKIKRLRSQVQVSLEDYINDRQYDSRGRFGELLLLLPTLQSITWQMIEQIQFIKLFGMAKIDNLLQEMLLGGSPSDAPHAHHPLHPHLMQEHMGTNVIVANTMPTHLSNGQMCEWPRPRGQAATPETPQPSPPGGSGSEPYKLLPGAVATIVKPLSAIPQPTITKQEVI
The experiment can be described thus: protein-binding microarray. The conditions noted are these: COS-7 nuclear extract on double-stranded Agilent 4x180k PBM; binding buffer, salt, pH and temperature not given; high values mean tight binding; double strand, one strand shown; sequences stand for … in …GCCTAGGGAGATTAGAGTATCGGTCGA
In the case of ATCGGTAAATACGAATAATCATATCTGCCT, the binding signal (log2 normalized intensity) is -1.31.

For GCACTAAGCCGAACGCTGGGGCAAAGGTTT, the binding signal (log2 normalized intensity) was found to be 2.89.

In the case of ACAGGATCAATAAAAGGTCCAGAGTTCACT, the binding signal (log2 normalized intensity) came to 4.78.

Regarding GCTGAAGGGAAGGCTGCCGTCCTCAGTGAA, the binding signal (log2 normalized intensity) was -1.42.

In the case of ACGGCGCTGACGCCGCCTCTGCCTCTTGAC, the binding signal (log2 normalized intensity) is -1.37.

ATGCCCCATGGTAAGAACTACAGTTGACCT: the binding signal (log2 normalized intensity) came to 4.71.

ACATTCATCTGAGACTAACTGCATTTTGGA: the binding signal (log2 normalized intensity) was determined as 1.24.

For AAGGAACTCCATCCTCACTTTAGGTGCTCT, the binding signal (log2 normalized intensity) was -1.24.

Take TGCTGACCTTTAAGCCTATAGTTTCTGTTT: the binding signal (log2 normalized intensity) is 3.26.

With ACTGTAAACATCTAATGAACTGATTAGAAC, the binding signal (log2 normalized intensity) is -1.16.

As for AATGTGATAAGAATTTTGTGCAATTACACA, the binding signal (log2 normalized intensity) was -1.11.

In the case of TACTGAAAATGACCTTTGTTCCCTGCACTT, the binding signal (log2 normalized intensity) came to 7.89.

Consider GGTCACAAGAGGTGCTGTGTGCCTGAGAAT, for which the binding signal (log2 normalized intensity) was 0.1.

On to TAAAGATAAGAACGCTAGACACTGGGGACT, for which the binding signal (log2 normalized intensity) is -1.35.

With AAGAACACAGCGCAGCACACTGCAGCGGCA, the binding signal (log2 normalized intensity) is -1.22.

Consider TGGTGGCTTGAGTTGGAGAAGAGCAAAGAT, for which the binding signal (log2 normalized intensity) was -1.

As to AGAGCAGGAATTCTGATCTTTGACCTCTCC, the binding signal (log2 normalized intensity) was found to be 8.08.

In the case of ACCCTCAGGAACCAAGCATTTTGCAAGTTC, the binding signal (log2 normalized intensity) was -0.863.

Turning to CTGAGGTGGGAGGATCGCTTGAGCCTGGGA, the binding signal (log2 normalized intensity) is -1.31.

Take CCAGCAGCTCCAGGAGACGTAGAGATAAGG: the binding signal (log2 normalized intensity) was -1.41.

As to CAAGTTACACAAGTAGAATGAAAGCGGCTC, the binding signal (log2 normalized intensity) is -1.23.

As for CTCTGAGCTTCATCCTGACCATCTGCGAAA, the binding signal (log2 normalized intensity) is -1.15.

Take TCATGGCTCACTGCACCTTGACCTCCTGGG: the binding signal (log2 normalized intensity) is 5.78.

GATAATAAGTGACCCAGGAGGAGAAGGGTG: the binding signal (log2 normalized intensity) was -1.28.

Regarding TCTTGTAATCTGCTTCCAGTTCCATAATCC, the binding signal (log2 normalized intensity) stood at 0.842.

For AGTGGGAGTTACACTATCGGCTTCCCTGGT, the binding signal (log2 normalized intensity) was -1.24.

Turning to GAGGTGTTCGGGGGACGGAGAGCAGGGCGT, the binding signal (log2 normalized intensity) is -1.21.

Consider AAAGAGTGATTGAAGAAGTGGTTCTTTAGA, for which the binding signal (log2 normalized intensity) is -1.19.

Regarding CTGAGGCCAAAAGTCTCAGAAGCTGGGAGA, the binding signal (log2 normalized intensity) is -1.33.

In the case of GCAGCAATCAGCTCCTCAACCAAGGGATCA, the binding signal (log2 normalized intensity) was -1.3.

As to ACTTAGTCTCCAGCCCCCAGAGGTCACACT, the binding signal (log2 normalized intensity) was found to be 4.42.

Consider AGCTATGGGCAGAAAAAAATGAGTCACAAT, for which the binding signal (log2 normalized intensity) is -1.15.

For the sequence CAGGCATTCCACACTGCAGGCTCTGTCCCC, the binding signal (log2 normalized intensity) was 1.27.

In the case of TCAACTCTGCCATTGTCGTGGTTGTAGAAA, the binding signal (log2 normalized intensity) was determined as 1.29.

With TGAAACAAGCCCATCTTCCAGAAAACGGGA, the binding signal (log2 normalized intensity) is -1.18.

Take TAAAAACACGAGCTATTGCGAGGTTCCATG: the binding signal (log2 normalized intensity) was 0.00343.

Turning to TCTGAAAAAAGCTATCATTTGTCACTTGGA, the binding signal (log2 normalized intensity) was 0.664.

TCAACTAAGACAGACCCAAAGGTTAAGGAA: the binding signal (log2 normalized intensity) was 0.493.

On to GTGGCCCAAGATGGAGATGAGAAACTTATT, for which the binding signal (log2 normalized intensity) is -1.36.

Consider TACTTAAGATAGAGGCTTTAGCAATAAATT, for which the binding signal (log2 normalized intensity) was -1.35.

In the case of ATGGTATGCTCTGATATTCTCTTATCTACT, the binding signal (log2 normalized intensity) was 0.68.

For TTGGGAGCAATTTAGCAGCACCATCCTACA, the binding signal (log2 normalized intensity) is -1.24.

As for TTCATGATCAGGCAAGTGGTCATGTAGGTG, the binding signal (log2 normalized intensity) turned out to be 1.61.

For the sequence TGGACTTTAAACATTCCCACCTAAGACATA, the binding signal (log2 normalized intensity) was determined as 3.

With GTTTTTCCTTGATTAAACTTTAGTCAGATT, the binding signal (log2 normalized intensity) stood at 3.09.

As for CCGGCCGGCGGGGTCACGTGGGGCCGGTAC, the binding signal (log2 normalized intensity) turned out to be 3.59.

Take AAACTCTTTTCCTTTTTGCATGAGAATCTG: the binding signal (log2 normalized intensity) came to 1.06.

Consider TTTAGGCAGTTTTTGATCAAGGAGGACTTT, for which the binding signal (log2 normalized intensity) was found to be 4.55.

With GGAACGTCACACTGAAAGCTATCCCTCCAT, the binding signal (log2 normalized intensity) was -1.2.

As to GGAGCACACCAGGCCCTCGGCATCATGCCC, the binding signal (log2 normalized intensity) was -1.15.

For TGTCCTTCATCTATCTCCTTCTTCCCTTCT, the binding signal (log2 normalized intensity) was -0.722.

With CTCTAGGCATTGGAGATATGATAGCTGACA, the binding signal (log2 normalized intensity) is -1.27.

In the case of AGGGGTGGATCTCTGTCATGTTCAATATAC, the binding signal (log2 normalized intensity) is 1.04.

For the sequence TTTTCTCATAAAACACCCACCTTGTTATCT, the binding signal (log2 normalized intensity) was 1.79.

For the sequence AAATCATGGATCTGTGCTCAGATCCTGCTC, the binding signal (log2 normalized intensity) was -0.984.

Take GGCGAATGTCAAAGGTCTTTGGTGGTGGGG: the binding signal (log2 normalized intensity) was 2.45.

On to CAGCTCGTGGGCATGCCTCCCAGAGCATTG, for which the binding signal (log2 normalized intensity) was -1.35.

In the case of TGCAGCCTTGGACTCCTGGACTCAAGGAAT, the binding signal (log2 normalized intensity) was 4.93.

As to GCTGGTTGCCCCTTTGACCCTCGGGCCTCC, the binding signal (log2 normalized intensity) was determined as 6.49.

On to CAGATCAAAGGACATTTCTAAAAATAGCCT, for which the binding signal (log2 normalized intensity) was -0.707.

For ATTTGTCCGGGTATGTTCTTAAGATAAGGA, the binding signal (log2 normalized intensity) amounted to 0.776.

For TGCTCTTTCTTCTCTGTAGGTAAACAGTGA, the binding signal (log2 normalized intensity) is 1.39.

For CTTGGGGCTGATATCTCTCTGGCTGGTGGG, the binding signal (log2 normalized intensity) is -1.03.

Regarding AACTTTGGAAATGCAAACACCTACATTCAA, the binding signal (log2 normalized intensity) is -1.35.

With AAGCGATCTTTGCATTCCCAAAATGATTCC, the binding signal (log2 normalized intensity) amounted to 0.296.

Take GGTTTGGGGTCTAGAACAGCTCCTTTGAAG: the binding signal (log2 normalized intensity) was -1.2.

Turning to TGAGGAGCCAAGTTTTGCAACATACTGAAA, the binding signal (log2 normalized intensity) was -1.42.

For CTTATCACATTCTGCTCTTGAACCAGAGAA, the binding signal (log2 normalized intensity) was -0.602.

On to CAGTCCCTATAGCCTCACTTGCTGATAAGG, for which the binding signal (log2 normalized intensity) was -1.32.

For TGTGTGCTGCGCGGGGCCTCCCAGTGGTAT, the binding signal (log2 normalized intensity) is -1.26.

For CAACTCTAAGGGGGAAAGTCCACGTGAGAG, the binding signal (log2 normalized intensity) stood at 3.33.

With TGAGTGGAATATGAGGTCAGGGTTCATCTG, the binding signal (log2 normalized intensity) was determined as 4.46.
